# Results as given in PubChem BioAssay AID445 (National Center for Advancing Translational Sciences (NCATS), 2006).
# Hit rate of the full screen: of about 110,000 compounds, about 40 (0.04%) were called active. This list was built around the results that the source calls inconclusive (neither active nor inactive); the mix of calls is not that of the screen. Calls follow the shape of the dose curve; as a rule, active = well fitted curve in the direction sought with a large enough effect in the signal ratio (not every such curve was filed as active); inconclusive = small, poorly fitted or top-dose-only effect, or a change in a side signal; inactive = flat fitted curve, though single readings scatter; the % refers to the signal ratio. A potency beside an inconclusive call is a rough fit, not a confirmed value.
# Test: IkB Signaling;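 as to IkBa stabilization activation: 0% = basal untreated cells and 100% = reference inhibitor full response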
# Settings: ABC-DLBCL IkBa-CBG/CBR dual luciferase ratio (green luciferase fused to IkBa over red control in OCI-Ly3 lymphoma cells), 4 h; IkBa stabilization activation: at 57.1 µM (top of the series), scaled: untreated 0%, proteasome inhibitor 100% unless noted
# Outline: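 In this assay, an IκBα–CBG68 fusion accumulates when IKK-driven degradation is blocked; native CBR normalizes for cell number. OCI-Ly3 cells were treated 4 h with compound and doxycycline, then green and red light read after Chroma-Glo addition.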
# Potency is read from the fitted curve at half-maximal effect.
Structure (SMILES),IkBa stabilization activation,Potency
CCOc1ccccc1NC(=O)C1CCN(S(=O)(=O)Cc2ccccc2)CC1,inconclusive: 1.09% [signal inhibitor],–
Cc1cc(O)c(C(c2ccccc2Cl)N2CCCCC2)c(=O)n1Cc1ccco1 (configuration not stated),inconclusive: 2.17% [signal inhibitor],–
Cc1ccc(C(C)C)c(OCC(=O)Nc2c(C(=O)c3ccc(F)cc3)oc3ccccc23)c1,inactive,–
N#Cc1nc(-c2ccc(F)cc2)oc1NCc1cccc2c1OCO2,inactive,–
Cc1ccc(NC(=O)c2ccc3c(=O)n4nc(Nc5ccccc5C)sc4nc3c2)cc1C,inconclusive: -1.02% [signal inhibitor],–
CCc1ccc(C2N3CC4(C)CN2CC(c2ccccc2)(C3)C4=O)cc1 (configuration not stated),inconclusive: 1.69% [signal inhibitor],–
Cc1c2cnn(CC(=O)N3CCCCC3)c(=O)c2c(C)n1Cc1ccc(Cl)cc1,inconclusive: 1.61% [signal inhibitor],–
CCn1cc(C(=O)NCc2ccccc2)c(=O)c2cc(S(=O)(=O)N3CCOCC3)ccc21,inconclusive: 2.65% [signal inhibitor],–
CN(C)c1ncc2nc(-c3ccc(F)cc3)c(=O)n(C3CC3)c2n1,"inactive: -3.53% [at 11.4 µM, scaled: untreated 0%, proteasome inhibitor 100%]",–
Cc1cccc(N2CCN(C(=O)c3c4c(nc5ccccc35)C(=O)N(C3CCCCC3)C4)CC2)c1C,inconclusive: 2.49% [signal inhibitor],–
Cc1ccc(N(C)C(=O)c2noc3c2CCCCC3)cc1C,inconclusive: 0.896% [signal inhibitor],–
Cc1ccc(CC(=O)NCc2nc(-c3cccc(C)c3)no2)cc1,inconclusive: -0.387% [signal inhibitor],–
CCC(=O)N1C(C(=O)N2CCCC2)CSC1c1ccc(OC)cc1 (configuration not stated),inactive,–
COc1cc(OC)c(NC(=O)C(C)n2nc(-c3ccc(C)c(C)c3)ccc2=O)cc1Cl (configuration not stated),inconclusive: 0.611% [signal inhibitor],–
COc1cccc(NC(=O)CSc2nnc(NC(=O)NC3CCCCC3)s2)c1,inconclusive: 10% [signal inhibitor],–
Cc1cc(C)c(C#N)c(SCC(=O)c2cccs2)n1,–,"inconclusive: 15.8 µM [signal inhibitor, partial curve]"
Cc1ccc(-n2nc(C)c(C(=O)NCCCN3CCN(c4ccccc4F)CC3)c2-n2cccc2)cc1,inconclusive: -4.86% [signal inhibitor],–
CCOC(=O)c1cnc2c(C)cc(C)cc2c1Nc1ccc(N2CCOCC2)cc1,–,"inconclusive: 31.6 µM [signal inhibitor, single point]"
Cc1oc(-c2ccc(Cl)cc2)nc1CN1CCCC(C(=O)NCc2ccc(Cl)cc2)C1 (configuration not stated),inconclusive: -2.12% [signal inhibitor],–
CCCOc1ccccc1C(=O)Nc1nc2c(s1)CCCC2,inconclusive: 2.82% [signal inhibitor],–
CN(Cc1ccccc1)C(=O)c1ccc2c(c1)N(Cc1ccc(Cl)cc1)C(=O)c1ccccc1S2=O (configuration not stated),inconclusive: 5.05% [signal inhibitor],–

Structure (SMILES),IkBa stabilization activation,Potency
O=C(COc1ccc(Cl)cc1)Nc1ccc(Cl)cn1,inactive,–
CCc1ccccc1N1CC(c2nc3ccccc3n2CCC2CCCCC2)CC1=O (configuration not stated),inconclusive: -1.74% [signal inhibitor],–
Cc1nnc(N2CCC(C(=O)NCc3cccc(Cl)c3)CC2)c2nn(-c3ccccc3)c(C)c12,–,"inconclusive: 31.6 µM [rising, single point]"
Cn1c(=O)c2c(c3ccccc31)OC(=O)CC2c1ccccc1 (configuration not stated),inconclusive: 17% [signal activator],–
CC(C)c1ccc(NC(=O)CSC2=Nc3ccccc3C3=NC(CC(=O)NCc4ccco4)C(=O)N23)cc1 (configuration not stated),inconclusive: -0.0461% [signal inhibitor],–
COc1ccc(NC(=O)c2ccc3c(=O)n4nc(Nc5ccccc5C)sc4nc3c2)cc1,inactive,–
c1ccc(-c2noc(-c3ccc4ccccc4c3)n2)cc1,–,"inconclusive: 0.0631 µM [signal inhibitor, partial curve]"
Nc1c(C(=O)NCc2ccco2)nnn1-c1ccccc1,inconclusive: 9.01% [signal inhibitor],–
Cn1nnc(NC(=O)c2cccc(F)c2)n1,inactive,–
O=C1CC(=O)Nc2cc(S(=O)(=O)Nc3cccc(Br)c3)ccc2N1,inactive,–
Cc1ccc(CCNC(=O)c2ccc(CNS(=O)(=O)c3ccc(F)cc3)cc2)cc1,inconclusive: 2.19% [signal inhibitor],–
CCOC(=O)C1=C(CS(=O)(=O)c2ccc(F)c(C)c2)NC(=O)NC1c1ccc(F)c(F)c1 (configuration not stated),inconclusive: 2.22% [signal inhibitor],–
CC(=O)N1CCc2c(sc(NC(=O)CSc3ccc(C)cc3)c2-c2nc3ccccc3s2)C1,inactive,–
Cc1cccc(N2CCN(C(=O)c3cccc(-n4c(C)nc5cccnc54)c3)CC2C)c1 (configuration not stated),inconclusive: 3.42% [signal inhibitor],–
COC(=O)C1=C(C)NC2=C(C(=O)c3ccccc32)C1c1ccc(-c2ccc(C(=O)O)cc2)o1 (configuration not stated),inconclusive: 1.92% [signal inhibitor],–
Cc1cccc(N2C(=O)SC(N(CC(=O)O)c3cccc(C)c3)C2=O)c1 (configuration not stated),inconclusive: 16.6% [signal inhibitor],–
CCn1c(CN2CCC(C)CC2)nc2cc(NC(=O)c3cccc([N+](=O)[O-])c3)ccc21,inconclusive: 0.333% [signal inhibitor],–
O=C(Cn1c(=O)c2sccc2n(CC(=O)Nc2ccc(Cl)cc2Cl)c1=O)NCCc1ccccc1,inactive,–
Cc1ccc(NC(=O)N2CCc3c([nH]c4ccccc34)C2c2ccccc2F)c(Cl)c1 (configuration not stated),inconclusive: -0.655% [signal inhibitor],–
Cc1ccc(C)c(NS(=O)(=O)c2ccc3c(c2)CCCN3C(=O)C2CCC2)c1,inconclusive: 3.78% [signal inhibitor],–
NC(N)=N/N=C(/c1ccccc1)c1ccc(O)cc1O,"inactive: -0.665% [at 11.4 µM, scaled: untreated 0%, proteasome inhibitor 100%]",–
